Assay results: article PMC10668032
The list shows a part of the results. At the low end of the ranking, values are background and their order means little.

Molecular target: SIX1-Q177R homeodomain (UniProt Q15475)
Test: universal protein binding microarray
Details: Universal all-10-mer PBM (8x60K, AMADID 030236), 300 nM GST-tagged protein, Alexa Fluor 488 anti-GST; buffer, salt, pH and temperature not stated; high values mean tight binding; most listed sequences are background and not binding sites; double strand, one strand shown

Row | Sequence | binding signal
1 | AAACTGGC | 0.147 E-score
2 | ACTCATCT | -0.161 E-score
3 | GAATGCAA | -0.197 E-score
4 | ATGAGGAC | -0.136 E-score
5 | AATGGACC | -0.209 E-score
6 | CCCGCAGC | -0.125 E-score
7 | GATAGTAC | 0.132 E-score
8 | ATCGGGCG | 0.113 E-score
9 | CCCAACCA | 0.167 E-score
10 | GGGCACTA | -0.0665 E-score
11 | AGCTTCAG | -0.0707 E-score
12 | ACCATTGG | 0.0146 E-score
13 | AGCCCACC | -0.0322 E-score
14 | AGAACAAG | -0.0118 E-score
15 | ACCGAGCC | -0.0735 E-score
16 | CACTGGGC | 0.154 E-score
17 | AAGTAGGT | -0.00332 E-score
18 | GCACAAAC | 0.0203 E-score
19 | GACAAAAA | -0.238 E-score
20 | CGAAAAAG | 0.00292 E-score
21 | GGCCGAGA | -0.117 E-score
22 | GTCGAGCA | -0.0853 E-score
23 | ACGCCGAT | 0.152 E-score
24 | ACGGGCAG | 0.0358 E-score
25 | AGTCCTGC | -0.106 E-score

Row | Sequence | binding signal
26 | AAGGATCT | -0.0101 E-score
27 | CTACTTAA | -0.0474 E-score
28 | GATTGGAA | -0.14 E-score
29 | AGCTATCC | -0.156 E-score
30 | CTATTTTC | 0.0145 E-score
31 | AGACAATC | -0.165 E-score
32 | AATGAACA | 0.0106 E-score
33 | ACGCGCAA | 0.00609 E-score
34 | TGAGCGAA | 0.0103 E-score
35 | ATGAGGGC | -0.126 E-score
36 | ACGGTTAT | -0.0586 E-score
37 | GGGTAACA | 0.281 E-score
38 | AACAGGGG | 0.17 E-score
39 | AGAGCCCA | -0.3 E-score
40 | ACGGGTAA | 0.166 E-score
41 | ACGGCCCA | -0.0327 E-score
42 | ATGCCTCC | -0.217 E-score
43 | CCCCGCAA | 0.17 E-score
44 | CTGGTACA | 0.21 E-score
45 | CTTTATCC | -0.0934 E-score
46 | CGCAAAGC | -0.163 E-score
47 | ACTGTGAG | 0.111 E-score
48 | AGTTGGTC | -0.254 E-score
49 | GGACGTTA | 0.132 E-score
50 | CCGGGAGG | 0.0853 E-score

Row | Sequence | binding signal
51 | AATCGGAC | -0.0408 E-score
52 | CTGGCTAC | -0.119 E-score
53 | ACACAGAT | 0.167 E-score
54 | AGAAAGAT | -0.305 E-score
55 | CAGTGTAG | 0.423 E-score
56 | GCACACAC | 0.275 E-score
57 | ACATCATC | -0.133 E-score
58 | ATTAGTCG | 0.0382 E-score
59 | AAATTTCG | -0.177 E-score
60 | CAGGTGAG | -0.0478 E-score
61 | AACTATAC | 0.138 E-score
62 | AATCACCA | -0.118 E-score
63 | ACAGTACG | -0.0108 E-score
64 | CACCATAC | 0.349 E-score
65 | AGGTTATC | -0.151 E-score
66 | AAGGTTTC | -0.0918 E-score
67 | ATGCCGGA | 0.141 E-score
68 | ACCCACTC | 0.247 E-score
69 | AGTACTTG | -0.0862 E-score
70 | CAGGCGGC | -0.0835 E-score
71 | GCTTCAGA | -0.206 E-score
72 | GGGAAGAA | -0.0636 E-score
73 | TAGGATGA | -0.0891 E-score
74 | AACTGGGC | -0.221 E-score
75 | CATCCATG | 0.0752 E-score

Row | Sequence | binding signal
76 | GAACAAAC | -0.0718 E-score
77 | ACTCGGGC | 0.161 E-score
78 | CACTAGCG | 0.188 E-score
79 | GACCTTCC | -0.0691 E-score
80 | AAGAACCC | 0.115 E-score
81 | CATGATGC | -0.248 E-score
82 | CCTTCATC | -0.158 E-score
83 | CGAGAAAG | -0.0483 E-score
84 | ATAAGGAT | 0.131 E-score
85 | CACTCTTC | 0.0747 E-score
86 | GTCTTTGA | -0.189 E-score
87 | GTAATCAC | 0.114 E-score
88 | AATAAACC | 0.0937 E-score
89 | AAAGTTAT | -0.074 E-score
90 | AAGTTGCC | -0.268 E-score
91 | GCTGTTGA | -0.143 E-score
92 | GCGACCGC | -0.0652 E-score
93 | TACTATCA | 0.00575 E-score
94 | CCCCGGCG | 0.139 E-score
95 | AGATATCA | -0.189 E-score
96 | AGTCACAT | -0.0439 E-score
97 | ACGTCGTG | 0.0879 E-score
98 | CACCGGTA | 0.345 E-score
99 | CCCGTCAC | 0.0171 E-score
100 | AGGCTGAC | -0.112 E-score

Row | Sequence | binding signal
101 | GCCCTTAC | -0.248 E-score
102 | AGTGACAT | -0.101 E-score
103 | AGCCCCGC | 0.00775 E-score
104 | TACTAAAA | -0.0238 E-score
105 | AGCGAGAA | -0.139 E-score
106 | CATCTTCA | 0.051 E-score
107 | CCATCGAA | -0.0938 E-score
108 | CTGGTGAC | 0.124 E-score
109 | AGCTGTGC | -0.122 E-score
110 | TGCAATAA | -0.0636 E-score
111 | ACCCGACT | 0.207 E-score
112 | GTGGGCAA | -0.0987 E-score
113 | CAACAGAA | -0.251 E-score
114 | CGCTATCC | 0.0734 E-score
115 | ACGGAACT | -0.0864 E-score
116 | CACAATAG | 0.0436 E-score
117 | ACATCTCA | -0.087 E-score
118 | TATTCGCA | -0.118 E-score
119 | CATGCACC | 0.165 E-score
120 | AAGTAGCT | -0.197 E-score
121 | CTACATAA | -0.0943 E-score
122 | GTAACAGA | 0.16 E-score
123 | CGGACACG | 0.373 E-score
124 | CAGAGTGG | -0.04 E-score
125 | CACGCCCC | 0.29 E-score

Row | Sequence | binding signal
126 | AGACGGTG | 0.23 E-score
127 | AATACAGA | -0.17 E-score
128 | AGCGGAAG | -0.163 E-score
129 | CGGCCGTC | -0.156 E-score
130 | TCTAGAGA | -0.0337 E-score
131 | ATATCTAC | -0.0248 E-score
132 | GAGTTATA | 0.0922 E-score
133 | AGCAACAG | -0.218 E-score
134 | AGAGCACG | 0.136 E-score
135 | ACTGTATA | 0.0247 E-score
136 | ACGTCACA | 0.0995 E-score
137 | CGACAACA | 0.245 E-score
138 | AGAGTAAG | 0.00123 E-score
139 | AACATACA | 0.082 E-score
140 | ACAACAAC | 0.0423 E-score
141 | GAAAGGCA | -0.218 E-score
142 | TAAGAGTA | 0.0672 E-score
143 | CCTCTAAG | 0.0716 E-score
144 | ACTCTTGC | -0.00673 E-score
145 | ACTTTAAG | -0.148 E-score
146 | CAGCGCAC | 0.0268 E-score
147 | GATTTTCA | -0.179 E-score
148 | AAGAGTGT | 0.363 E-score
149 | ACAGCTCA | -0.268 E-score
150 | ATTCCTAG | -0.108 E-score

Row | Sequence | binding signal
151 | ATTGAGTA | 0.0331 E-score
152 | CAGGAAAG | -0.121 E-score
153 | ACTCAAGT | -0.0138 E-score
154 | ACCGATTG | 0.0855 E-score
155 | GTCCGTCA | -0.104 E-score
156 | CTGGCAGA | -0.0375 E-score
157 | CCAGAAGG | 0.0371 E-score
158 | ATTTCTTG | -0.256 E-score
159 | ATATCCAC | 0.0168 E-score
160 | GGGTAATA | 0.264 E-score
161 | TTCTAAAA | -0.202 E-score
162 | CCAAACAA | -0.143 E-score
163 | AGTGGAGC | -0.086 E-score
164 | CTGGCGAC | -0.0203 E-score
165 | ACTCCGCG | 0.22 E-score
166 | CGATCGCA | 0.0214 E-score
167 | AGATCGCA | 0.00417 E-score
168 | AATCTGCA | -0.0776 E-score
169 | ACTCCCGG | 0.239 E-score
170 | AGCTACTC | -0.0761 E-score
171 | AACAGCAC | 0.0559 E-score
172 | CTCGATCA | -0.0116 E-score
